{"source": "PubChem BioAssay AID1468", "about": "(National Center for Advancing Translational Sciences (NCATS), 2008)", "note": "“And” between values parts separate entries of the source, which are not always exact repeats. Equal values may be shown once. About 1,100 (0.39%) of roughly 280,000 compounds were called active. The inconclusive results got no clear call from the source; some entries with a clear call stand among them for comparison. Calls come from the whole dose curve; as a rule, active = well fitted inhibition curve with a large enough effect; inconclusive = small, poorly fitted or top-dose-only effect, or effect the other way; inactive = flat fitted curve, though single readings scatter. Where the call is inconclusive, the potency comes from a doubtful curve fit. Potency is the fitted concentration of half-maximal effect; tags give direction and shape of the fitted curve."}
{"target": "Microtubule-associated protein tau (Homo sapiens) (UniProt P10636)", "sequence (P10636 whole entry, looked up)": "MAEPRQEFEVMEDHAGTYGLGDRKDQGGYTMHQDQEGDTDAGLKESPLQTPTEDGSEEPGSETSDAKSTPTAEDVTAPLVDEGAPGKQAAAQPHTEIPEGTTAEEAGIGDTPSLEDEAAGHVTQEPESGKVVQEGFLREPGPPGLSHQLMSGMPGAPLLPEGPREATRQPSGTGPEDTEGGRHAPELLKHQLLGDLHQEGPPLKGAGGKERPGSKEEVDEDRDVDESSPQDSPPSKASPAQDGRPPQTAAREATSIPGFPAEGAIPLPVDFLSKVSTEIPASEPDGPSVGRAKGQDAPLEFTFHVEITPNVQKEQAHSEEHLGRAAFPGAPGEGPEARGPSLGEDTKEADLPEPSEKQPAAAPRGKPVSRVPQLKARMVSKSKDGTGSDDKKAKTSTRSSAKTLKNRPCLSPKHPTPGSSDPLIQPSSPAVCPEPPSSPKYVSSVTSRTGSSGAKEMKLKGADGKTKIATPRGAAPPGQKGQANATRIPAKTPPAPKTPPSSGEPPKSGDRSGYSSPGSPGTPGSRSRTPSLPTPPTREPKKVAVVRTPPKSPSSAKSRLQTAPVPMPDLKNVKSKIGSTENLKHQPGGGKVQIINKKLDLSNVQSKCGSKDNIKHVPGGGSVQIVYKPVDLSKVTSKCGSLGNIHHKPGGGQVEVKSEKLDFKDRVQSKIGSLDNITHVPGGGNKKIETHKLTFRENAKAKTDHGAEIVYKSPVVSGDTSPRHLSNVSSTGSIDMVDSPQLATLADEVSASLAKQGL", "assay": "qHTS for Inhibitors of Tau Fibril Formation, Fluorescence Polarization; note: nearly all actives have a fitted effect of over 55% in size", "conditions": "K18 P301L tau heparin fibrillization, Alexa594 FP, 6 h; series mostly up to 57.7 µM", "in_short": "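FP of Alexa 594-tau after heparin (20 uM) induction. Substrate: human K18 P301L, 15 uM unlabeled, 0.24 uM labeled. Buffer 100 mM sodium acetate pH 7. 6 hr, 37 C.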"}
{"smiles": "CCN1C(=O)c2cccc3c(NC(=O)c4cccc(N5C(=O)CCC5=O)c4)ccc1c23", "Potency": "inactive"}
{"smiles": "Cc1ccc(N=C2NC(=O)C(CC(=O)NCc3ccccc3)S2)cc1C", "note": "(centres undefined)", "Potency": "inactive"}
{"smiles": "CC(C)OCCCNC(=O)c1ccc(-n2c(-c3ccccc3)cc3c2CCCC3)cc1", "Potency": "active: 14.1 µM"}
{"smiles": "O=S(=O)(Nc1ccc(S(=O)(=O)Nc2nccs2)cc1)c1ccc2c(c1)OCCO2", "Potency": "inactive"}
{"smiles": "O=C(NCc1ccccn1)c1ccc2nc(-c3ccco3)c(-c3ccco3)nc2c1", "Potency": "inconclusive: 22.4 µM [inhibitor, partial curve]"}
{"smiles": "O=C(Nc1ccc(OC(F)F)c(Cl)c1)c1cccc(OC(F)F)c1", "Potency": "inconclusive: 22.4 µM [inhibitor, partial curve]"}
{"smiles": "CCOC(=O)c1cnc(SC2CCc3ccccc3C2=O)nc1N", "note": "(centres undefined)", "Potency": "inconclusive: 5.01 µM [inhibitor, partial curve, poor fit]"}
{"smiles": "O=C(NC1=NCCS1)c1sc2cc(Cl)cc(Cl)c2c1Cl", "Potency": "inconclusive: 25.1 µM [inhibitor, single point]"}
{"smiles": "O=C(O)C1CSC(c2ccc3c(c2)OCO3)N1", "note": "(centres undefined)", "Potency": "inconclusive: 7.94 µM [inhibitor, partial curve, poor fit]"}
{"smiles": "COC(=O)c1cccc(Nc2c(-c3ccc(O)c(OC)c3)nc3nc[nH]n23)c1", "Potency": "inactive"}
{"smiles": "O=C(NNc1cc(N2CCOCC2)nc(N2CCOCC2)n1)c1ccc(Cl)cc1Cl", "Potency": "inconclusive: 5.62 µM [inhibitor, full curve, poor fit]"}
{"smiles": "Cc1ccc(-c2nc3cc(C(C)C)ccc3o2)cc1NC(=O)c1cccs1", "Potency": "inconclusive: 12.6 µM [inhibitor, partial curve]"}
{"smiles": "COC(=O)\\C(C(C)=O)=C(/C=C/C=C/C=C/N(C)C)N(C)C", "Potency": "inconclusive: 0.891 µM [inhibitor, full curve, poor fit]"}
{"smiles": "O=C1C(Cl)=C(N2CCN(Cc3ccccc3)CC2)C(=O)N1c1ccccc1", "Potency": "active: 25.1 µM"}
{"smiles": "Cc1cccc(NC(=O)CSc2nc3ccc(NC(=O)c4ccco4)cc3s2)c1", "Potency": "inconclusive: 11.2 µM [inhibitor, partial curve]"}
{"smiles": "Cc1ccc(-c2n[nH]c(=S)n2/N=C/c2cc3c(cc2[N+](=O)[O-])OCO3)cc1", "Potency": "inconclusive: 2.24 µM [activator, full curve, poor fit]"}
{"smiles": "CCn1c(-c2cc(OC)ccc2OC)csc1=Nc1c(C)n(C)n(-c2ccccc2)c1=O", "Potency": "inconclusive: 0.891 µM [inhibitor, single point]"}
{"smiles": "Cc1cc2nc(-c3cc(NC(=O)c4cc5ccccc5o4)ccc3Cl)oc2cc1C", "Potency": "inconclusive: 10 µM [inhibitor, partial curve]"}
{"smiles": "Cc1oc(-c2ccc(Cl)cc2)nc1CS(=O)CC(=O)NCc1ccc(Cl)cc1", "note": "(centres undefined)", "Potency": "inactive"}
{"smiles": "CC(C)N(Cc1ccccc1)C(=O)CCS(=O)(=O)c1cc2c(cc1Cl)NC(=O)CO2", "Potency": "inactive"}
{"smiles": "Cc1[nH][nH]c(=O)c1C(c1ccc(N(C)C)c(Br)c1)c1c(C)[nH][nH]c1=O", "Potency": "inactive"}
{"smiles": "O=C1CC(c2ccccc2C(F)(F)F)c2c(c3ccccc3[nH]c2=O)O1", "note": "(centres undefined)", "Potency": "inactive"}
{"smiles": "Cc1cc[n+](-c2[nH]c(=O)sc2/C=N/NC([S-])=Nc2ccccc2)cc1C", "Potency": "inconclusive: 14.1 µM [inhibitor, partial curve]"}
{"smiles": "COc1ccc(/C=N/NC(=O)c2cc(C(C)(C)C)[nH]n2)cc1COc1ccc(F)cc1F", "Potency": "inconclusive: 14.1 µM [inhibitor, partial curve]"}
{"smiles": "O=C(O)c1cc([N+](=O)[O-])cc2c1nnn2O", "Potency": "inconclusive: 44.7 µM [inhibitor, single point]"}
{"smiles": "O=S1(=O)C=C(SCc2ccc(F)cc2)Nc2ccccc21", "Potency": "inconclusive: 7.94 µM [inhibitor, single point]"}
{"smiles": "Nc1ccc2ncccc2c1", "Potency": "inconclusive: 2.82 µM [inhibitor, partial curve]"}
{"smiles": "COc1ccc(CNC(=O)c2cc3c(s2)-c2ccccc2OC3)cc1", "Potency": "inconclusive: 25.1 µM [inhibitor, single point]"}
{"smiles": "COCCN=C1Sc2nc3ccc(C)cc3cc2CN1Cc1cccs1", "Potency": "inactive"}
{"smiles": "O=C(Cn1c(=O)n(-c2ccc(F)c(Cl)c2)c(=O)c2sc3ccccc3c21)NC1CCCC1", "Potency": "inconclusive: 14.1 µM [inhibitor, partial curve]"}
{"smiles": "CCCC(=Nc1ccc(N)cc1)C1=C(O)C(C(=O)OC)C(C)(C)CC1=O", "note": "(centres undefined)", "Potency": "active: 14.1 µM"}
{"smiles": "CC(C)=CCCC1(C)C=Cc2c(c(C)cc3c2[nH]c2ccccc23)O1", "note": "(centres undefined)", "Potency": "inactive"}
{"smiles": "CC(C)(C)OC(=O)C1=NOC2(C=CC(=O)C=C2)C1", "Potency": "inconclusive: 1.78 µM [inhibitor, partial curve] and inconclusive: 14.1 µM [inhibitor, partial curve]"}
{"smiles": "CCOc1ccc(-c2[nH]ncc2Oc2cccc(OC)c2)c(O)c1", "Potency": "inconclusive: 39.8 µM [inhibitor, single point]"}
{"smiles": "CC(C)N1CCc2c(sc(NC(=O)c3cc(-c4cccs4)nc4ccccc34)c2C(N)=O)C1", "Potency": "inactive"}
{"smiles": "COCOc1cc(OC)ccc1C(=O)/C=C/c1ccc2c(c1)OCO2", "Potency": "inconclusive: 3.16 µM [inhibitor, full curve, poor fit]"}
{"smiles": "CC(c1ccc(Cl)cc1)n1c(-c2ccc3ccccc3n2)n[nH]c1=S", "note": "(centres undefined)", "Potency": "inconclusive: 44.7 µM [inhibitor, single point]"}
{"smiles": "Cc1ccc(S(=O)(=O)Nc2ccc(N=Nc3ccc(O)cc3)cc2)cc1", "Potency": "inconclusive: 39.8 µM [inhibitor, single point]"}
{"smiles": "Cc1ccc(C(=O)NNc2cc(N3CCCC3)nc(N3CCCC3)n2)cc1", "Potency": "inactive"}
{"smiles": "O=c1c(C/C=C/c2ccccc2)c(O)ccn1Cc1cccc(Cl)c1", "Potency": "inconclusive: 20 µM [inhibitor, single point]"}
{"smiles": "COc1cc(OC)cc(C(=O)NCC(c2cccs2)S(=O)(=O)c2ccc(F)c(C)c2)c1", "note": "(centres undefined)", "Potency": "inactive"}
{"smiles": "Cc1cc(CN2C(=O)c3ccccc3C2=O)no1", "Potency": "inconclusive: 1.12 µM [inhibitor, full curve, poor fit]"}
{"smiles": "COc1cc(C(=O)N2CCN(CCc3ccccn3)CC2)cc(OC)c1OC", "Potency": "inactive"}
{"smiles": "Cc1ccc(NC(=S)NC(NC(=O)Cc2cccc3ccccc23)C(Cl)(Cl)Cl)cc1", "note": "(centres undefined)", "Potency": "inconclusive: 31.6 µM [inhibitor, partial curve]"}
